# In PubChem BioAssay AID504332 (National Center for Advancing Translational Sciences (NCATS), 2011):
# Screen size: about 350,000 compounds; about 31,000 (8.9%) were called active. Inconclusive means that the source gave no clear call. Such entries were picked first, then a sample of the others. The call rests on the fitted dose curve; in most records, active means well fitted inhibition curve with a large enough effect; inconclusive means small, poorly fitted or top-dose-only effect; inactive means no such curve, though single readings can be large or run the other way. Where the call is inconclusive, the potency comes from a doubtful curve fit.
# Biological target: Histone-lysine N-methyltransferase EHMT2 (Homo sapiens) (UniProt Q96KQ7)
# UniProt Q96KQ7, sequence (Q96KQ7 whole entry, looked up): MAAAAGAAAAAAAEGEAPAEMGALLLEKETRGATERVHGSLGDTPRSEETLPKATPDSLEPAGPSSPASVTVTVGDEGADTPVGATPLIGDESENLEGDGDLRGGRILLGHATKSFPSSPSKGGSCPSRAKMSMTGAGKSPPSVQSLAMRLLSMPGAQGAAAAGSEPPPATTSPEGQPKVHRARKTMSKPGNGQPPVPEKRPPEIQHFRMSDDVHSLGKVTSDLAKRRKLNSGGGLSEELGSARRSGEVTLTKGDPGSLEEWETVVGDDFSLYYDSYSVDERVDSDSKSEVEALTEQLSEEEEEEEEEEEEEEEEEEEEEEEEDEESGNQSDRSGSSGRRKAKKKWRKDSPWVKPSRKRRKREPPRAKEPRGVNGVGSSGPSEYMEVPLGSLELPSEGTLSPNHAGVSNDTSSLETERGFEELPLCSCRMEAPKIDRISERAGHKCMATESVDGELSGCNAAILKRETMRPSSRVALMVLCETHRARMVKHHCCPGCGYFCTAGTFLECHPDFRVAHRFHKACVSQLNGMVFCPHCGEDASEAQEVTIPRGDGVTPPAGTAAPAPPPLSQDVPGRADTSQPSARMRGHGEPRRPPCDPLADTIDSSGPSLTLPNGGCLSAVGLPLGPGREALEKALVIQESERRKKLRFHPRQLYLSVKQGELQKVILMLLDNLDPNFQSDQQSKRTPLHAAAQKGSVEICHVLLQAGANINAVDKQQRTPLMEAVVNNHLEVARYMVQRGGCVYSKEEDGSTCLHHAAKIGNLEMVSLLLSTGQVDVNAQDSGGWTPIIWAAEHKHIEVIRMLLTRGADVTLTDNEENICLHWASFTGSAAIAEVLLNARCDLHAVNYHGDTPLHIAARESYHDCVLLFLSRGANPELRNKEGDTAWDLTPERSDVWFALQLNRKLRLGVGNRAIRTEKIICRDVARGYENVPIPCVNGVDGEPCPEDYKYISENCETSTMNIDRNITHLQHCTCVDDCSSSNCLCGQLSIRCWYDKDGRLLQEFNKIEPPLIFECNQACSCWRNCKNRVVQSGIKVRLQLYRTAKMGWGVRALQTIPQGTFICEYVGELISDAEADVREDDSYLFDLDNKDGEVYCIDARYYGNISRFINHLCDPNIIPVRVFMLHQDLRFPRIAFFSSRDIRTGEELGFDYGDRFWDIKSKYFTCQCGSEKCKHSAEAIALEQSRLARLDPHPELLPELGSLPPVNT
# Test: qHTS Assay for Inhibitors of Histone Lysine Methyltransferase G9a; further: nearly all actives have a fitted effect of over 75% in size
# Settings: G9a H3K9 monomethylation, AlphaScreen, 2 h
# Procedure, shortened: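 AlphaScreen read-out: biotin-H3K9 peptide (500 nM) methylation by 20 nM enzyme with 20 uM SAM, 2 h at room temperature after 15 min compound preincubation; anti-monomethyl H3K9 antibody plus donor/acceptor beads, 10 min dark.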
# [1] = activity, negative = inhibition: at 59 µM (top of the series) unless noted
# On the % scale 0 is the no-effect control and ±100 the full control effect; potency means the concentration at half of the fitted maximal effect; tags describe the fitted curve by direction and shape.
smiles,measurement,setting,value
CN(C(=O)C1CCC(=O)N(C2CC2)C1)C1CCCCC1 (stereo unspecified),Potency,[1],inactive
O=C1N(Cc2cccnc2)C[C@@H]2C[C@@H](c3ccc(-c4ccccc4)cc3)N3CCC[C@@]123,Potency,[1],active: 50.1 µM
O=C(NNc1nc(-c2ccccc2)cs1)c1cccs1,Potency,[1],inactive
COc1ccc(C(O)c2nccn2C)cc1 (stereo unspecified),Potency,[1],"inconclusive: 89.1 µM [inhibitor, single point]"
CCCCn1c(N)c(N(CCOC)C(=O)COc2c(C)cccc2C)c(=O)[nH]c1=O,Potency,[1],"inconclusive: 3.98 µM [inhibitor, partial curve]"
CCOc1ccc(N(CC(N)=O)S(=O)(=O)c2ccc(F)cc2)cc1,Potency,[1],"inconclusive: 35.5 µM [inhibitor, full curve]"
Cc1ccc(C)c(NNC(=O)C(=O)NNc2cc(C)ccc2C)c1,Potency,[1],active: 28.2 µM
CN(C)C(=O)c1ccc(-c2nc(NC3CCNCC3)c3ccccc3n2)cc1,"activity, negative = inhibition",[1],inactive: 1.59% [at 0.501 µM]
COc1ccc(CNC(=O)[C@H](Cc2ccccc2)NC(=O)C2CCNCC2)cc1,Potency,[1],active: 50.1 µM
CCCCOC(=O)c1cc2c(cn1)[nH]c1ccccc12,Potency,[1],inactive
O=C(CCCN=C1NS(=O)(=O)c2ccccc21)OCc1ccc(F)cc1,Potency,[1],inactive
COc1ccc(OC)c(NC(=O)c2ccc(-c3csc(C)n3)cc2)c1,Potency,[1],"inconclusive: 0.398 µM [inhibitor, partial curve, poor fit]"
Cc1ccc(OCCCCN2CCCCC2)c(Br)c1,Potency,[1],active: 11.2 µM
CCOCCCNCc1ccc(OCCC(C)C)c(OC)c1,Potency,[1],"inconclusive: 50.1 µM [inhibitor, partial curve]"
O=C(c1ccc2c(=O)n(Cc3ccc(Cl)cc3)c(=S)[nH]c2c1)N1CCOCC1,Potency,[1],inactive
Cc1ccc(S(=O)(=O)N2CCN(C(=O)c3ccccc3)CC2)c(C)c1NS(C)(=O)=O,Potency,[1],"inconclusive: 44.7 µM [inhibitor, partial curve, poor fit]"
CCCCOCCCNC(=S)Nc1ccc(S(=O)(=O)N2CCOCC2)cc1,Potency,[1],"inconclusive: 44.7 µM [inhibitor, partial curve, poor fit]"
COc1ccc(C(CNC(=O)c2cccc(S(=O)(=O)Nc3ccccc3Cl)c2)N2CCOCC2)cc1 (stereo unspecified),Potency,[1],"inconclusive: 39.8 µM [inhibitor, partial curve, poor fit]"
O=[N+]([O-])c1cc(C2Nc3cccc4cccc(c34)N2)ccc1Cl,Potency,[1],"inconclusive: 8.91 µM [inhibitor, partial curve, poor fit]"
Cc1ccc(S(=O)(=O)N2CCN(CC(=O)NC(=O)NCc3ccccc3)CC2)cc1C,Potency,[1],inactive
CCS(=O)(=O)c1ccc(O)c(NC(=O)/C=C/c2ccc(Cl)cc2)c1,Potency,[1],inactive
Cc1ccccc1-c1nc(CS(=O)(=O)CC(=O)NCCN2CCCC2)c(C)o1,Potency,[1],"inconclusive: 79.4 µM [inhibitor, partial curve, poor fit]"
COC(Cc1n[nH]c(=S)n1-c1ccccc1)OC,Potency,[1],inactive
COc1cc(O)c(C(=O)/C=C/c2ccccc2)c(OC)c1,"activity, negative = inhibition",at 2.33 µM (top of the series),inconclusive: -53.4% [inhibitor]
same,"activity, negative = inhibition",at 59 µM (top of the series),inconclusive: -86.9% [inhibitor]
CSc1nc2ccc(NS(=O)(=O)c3ccc4c(c3)OCCO4)cc2s1,Potency,[1],"inconclusive: 79.4 µM [inhibitor, single point]"
CCc1ccc(N2C(=O)CS(=O)(=O)C23C(=O)N(Cc2ccccc2)c2ccccc23)cc1 (stereo unspecified),Potency,[1],"inconclusive: 7.08 µM [inhibitor, partial curve, poor fit]"
CCOC(=O)C(=NCCCN1CCOCC1)NNc1cccc(C(F)(F)F)c1,Potency,[1],active: 50.1 µM
Cc1ccc(N(Cc2ccco2)C(=O)c2ccc(N3CCCCC3)c([N+](=O)[O-])c2)cc1,Potency,[1],"inconclusive: 10 µM [inhibitor, partial curve, poor fit]"
O=C(NC1CCN(Cc2ccccc2)CC1)C1CCN(S(=O)(=O)c2cccc3cccnc23)CC1,Potency,[1],"inconclusive: 79.4 µM [inhibitor, partial curve, poor fit]"
CCc1cccc(C)c1Nc1c(-c2ccc(N3CCOCC3)cc2)nc2ncccn12,Potency,[1],active: 10 µM
CC(C)c1ccc(/C=C2\SC(=S)N(CCC(=O)N3CCCCC3CCO)C2=O)cc1 (stereo unspecified),Potency,[1],active: 44.7 µM
Cc1cc(C)nc(NS(=O)(=O)c2ccc(NS(=O)(=O)c3ccc(C#N)cc3)cc2)n1,Potency,[1],"inconclusive: 89.1 µM [inhibitor, single point]"
COc1cc(NC(=O)c2cnn3c(C)cc(C)nc23)c(OC)cc1Cl,Potency,[1],"inconclusive: 39.8 µM [inhibitor, single point]"
Cc1ccc(NC(=O)CCc2ccc(S(=O)(=O)NC3CCCCC3)cc2)cc1,Potency,[1],inactive
Clc1ccccc1-c1nnc2sc(-c3ccco3)nn12,Potency,[1],"inconclusive: 7.94 µM [inhibitor, full curve, poor fit]"
Nc1nc2ccccc2n1C(=O)c1ccc(F)cc1,"activity, negative = inhibition",[1],inconclusive: -77.4% [inhibitor] [at 0.501 µM]
COc1ccc(OC)c2[nH]c(=O)c(CCNC(=O)CC(C)C)cc12,Potency,[1],"inconclusive: 79.4 µM [inhibitor, partial curve, poor fit]"
CCOC(=O)c1c(C)oc2ccc(O)c(CN(C)C)c12,Potency,[1],"inconclusive: 7.08 µM [inhibitor, partial curve, poor fit]"
COc1cc(CC(NC(C)=O)C(=O)NC2CCN(c3c(Cc4ccccc4)c(C)nc4ncnn34)CC2)cc(OC)c1 (stereo unspecified),Potency,[1],"inconclusive: 79.4 µM [inhibitor, partial curve, poor fit]"
COc1cc(NC(=O)c2oc3ccccc3c2C)ccc1NC(=O)c1ccco1,Potency,[1],"inconclusive: 89.1 µM [inhibitor, single point]"
Cc1ccc(C)c(SCC(=O)OCC(=O)c2ccco2)c1,Potency,[1],"inconclusive: 35.5 µM [inhibitor, single point]"
O=C(CSc1nccn1-c1ccccc1)N1CCc2ccccc21,Potency,[1],"inconclusive: 79.4 µM [inhibitor, single point]"
CCCCCCC[C@H](N)[C@H](O)C(=O)N(C)[C@@H](CCS(C)=O)C(=O)N[C@@H](Cc1ccc(O)cc1)C(=O)N[C@@H](Cc1ccc(O)cc1)C(=O)O (stereo partly specified),"activity, negative = inhibition",[1],inconclusive: -75.8% [inhibitor]
COc1ccc(-c2nc3ccc(C)cn3c2NCc2ccc3c(c2)OCO3)cc1,Potency,[1],inactive
Cc1ccccc1N1Cc2ccccc2C1,Potency,[1],active: 7.94 µM
CCOC(=O)c1sc(N(Cc2ccccc2)C(=O)COC(=O)c2ccc(O)cc2)nc1C,Potency,[1],"inconclusive: 0.891 µM [inhibitor, full curve, poor fit]"
Cc1c(CBr)[n+](=O)c2c(n1[O-])C(Br)CCC2Br (stereo unspecified),Potency,[1],active: 7.94 µM
COc1ccc(N=Nc2[nH]c3ccc(C)cc3c2O)cc1,Potency,[1],active: 11.2 µM
CC(=O)Nc1ccc(NC(=O)COC(=O)c2ccc(Cl)nc2)cc1,Potency,[1],"inconclusive: 50.1 µM [inhibitor, partial curve, poor fit]"
Cc1c(C(=O)N2CCCC2)c(S(=O)(=O)Nc2ccccc2)c(C)n1C,Potency,[1],inactive
COc1ccc(Cn2c(C(=O)O)c(CNCCc3ccccc3Cl)c3ccc(C)cc32)cc1,Potency,[1],"inconclusive: 3.55 µM [inhibitor, full curve]"
CN(C)CCCNc1nc(-c2ccccc2)nc2ccccc12,Potency,[1],active: 79.4 µM
Cc1cccc(N2N=C(C(=O)Nc3nc(C)cs3)CCC2=O)c1,Potency,[1],"inconclusive: 31.6 µM [inhibitor, partial curve, poor fit]"
O=C(c1cc(-c2ccccc2)on1)N1CCCCCC1,Potency,[1],inactive
COc1cc(C(=S)N2CCN(C(c3ccccc3)c3ccccc3)CC2)cc(OC)c1O,Potency,[1],active: 7.94 µM
Cn1c(O)c(N=NC(=O)Cn2c(C(F)(F)F)nc3ccccc32)c2ccccc21,Potency,[1],inactive
COc1cc(OC)c(NC(=S)Nc2cc(Cl)cc(Cl)c2)cc1Cl,Potency,[1],"inconclusive: 89.1 µM [inhibitor, single point]"
CCOc1ccc(NC(=O)Cn2cc(C(=O)c3ccc(C)c(C)c3)c(=O)c3cc(F)ccc32)cc1,Potency,[1],inactive
Nn1c(Cc2cccc3ccccc23)nnc1SCc1ccccc1,Potency,[1],inactive
CCC1(C)Cc2ccccc2/C(=C/C(=O)N2CCCCC2)N1 (stereo unspecified),Potency,[1],active: 39.8 µM
COc1ccccc1CNC(=O)Cn1cc([N+](=O)[O-])ccc1=O,Potency,[1],"inconclusive: 89.1 µM [inhibitor, single point]"
COc1ccc(Cn2c(=S)[nH]c3ccsc3c2=O)cc1,Potency,[1],active: 8.91 µM
CCN(CC(=O)Nc1ccc(NC(C)=O)cc1)C(=O)Cc1coc2cc(C)c(C)cc12,Potency,[1],active: 50.1 µM
COc1cc(C(=O)Nc2cc(C(F)(F)F)ccc2N2CCOCC2)ccc1OCC(=O)N1CCOCC1,Potency,[1],"inconclusive: 89.1 µM [inhibitor, partial curve, poor fit]"
Cc1cc(O)c(C(=O)c2cnc3c(c2)COc2ccccc2-3)cc1Cl,Potency,[1],"inconclusive: 10 µM [inhibitor, partial curve]"
Cc1c(C(=O)N2CCOCC2)sc(NC(=O)CCl)c1C#N,Potency,[1],inactive
O=C(c1ccc(C#CC2(O)CCCCC2)cc1)N1CCN(C(c2ccccc2)c2ccccc2)CC1,Potency,[1],"inconclusive: 79.4 µM [inhibitor, single point]"
O=C(Cn1c(=O)oc2ccccc21)NC(=O)NCc1ccco1,Potency,[1],"inconclusive: 89.1 µM [inhibitor, single point]"
Cc1ccc(C)c(N2N=C(C(=O)O)CCC2=O)c1,Potency,[1],inactive
CSCCC(NC(=O)/C(=C/c1ccco1)NC(=O)c1ccc(Br)o1)C(=O)O (stereo unspecified),Potency,[1],"inconclusive: 56.2 µM [inhibitor, single point]"
